According to article PMC8964761, “Crystal structure and cellular functions of uPAR dimer” (Nature Communications, 2022):

Tests used:
[1] = target: T1, full-length single-chain uPA (scuPA) (UniProt P00749); experiment: SPR; Biacore T200; suPAR monomer or dimer captured on anti-uPAR antibody immobilised on a CM5 chip; ATF (0.14-33.3 nM) or scuPA (0.54-44.4 nM) flowed over; 10 mM HEPES, 150 mM NaCl, 3 mM EDTA, 0.005% P-20, pH 7.4, 20 °C; 1:1 Langmuir fit; settings: both partners purified
T1 construct: Secreted protein; source: Drosophila S2 cells, secreted, purified (SPFF, C8 reverse phase HPLC)

[2] = target: the molecule itself; experiment: SEC; suPAR dissolved at 0.25, 1, 4 or 16 mg/mL at pH 4.6 or pH 7.4, 4 °C for one day; Superdex 200 10/300, 20 mM Tris pH 7.4, 150 mM KCl; monomer to dimer

Kd [1]: 149 pM
B1: soluble uPAR (suPAR), monomer (receptor)
chain: not shown
notes: N-glycosylated; A selenomethionine-substituted preparation was used for phasing of the low-pH crystal structure; also called monomeric suPAR; monomeric uPAR; source: lyophilized
stoichiometry N [2]: 2
